Among all 350,000 compounds or so, about 31,000 (8.9%) were called active. The inconclusive results got no clear call from the source; some entries with a clear call stand among them for comparison. The call rests on the fitted dose curve; in most records, active means well fitted inhibition curve with a large enough effect; inconclusive means small, poorly fitted or top-dose-only effect; inactive means no such curve, though single readings can be large or run the other way. Where the call is inconclusive, the potency comes from a doubtful curve fit.
Biological target: Histone-lysine N-methyltransferase EHMT2 (Homo sapiens) (UniProt Q96KQ7)
Assay: qHTS Assay for Inhibitors of Histone Lysine Methyltransferase G9a; further: nearly all actives have a fitted effect of over 75% in size
Settings: G9a H3K9 monomethylation, AlphaScreen, 2 h; activity, negative = inhibition: at 59 µM (top of the series) unless noted
Outline: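 Using a bead-based AlphaScreen, monomethylated H3K9 product from 2 h room-temperature reactions (G9a 20 nM, peptide 500 nM, SAM 20 uM) was detected with 0.5 ug/mL rabbit anti-H3K9me1 antibody.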
On the % scale 0 is the no-effect control and ±100 the full control effect; potency means the concentration at half of the fitted maximal effect; tags describe the fitted curve by direction and shape.

Chain of UniProt Q96KQ7 (Q96KQ7 whole entry, looked up): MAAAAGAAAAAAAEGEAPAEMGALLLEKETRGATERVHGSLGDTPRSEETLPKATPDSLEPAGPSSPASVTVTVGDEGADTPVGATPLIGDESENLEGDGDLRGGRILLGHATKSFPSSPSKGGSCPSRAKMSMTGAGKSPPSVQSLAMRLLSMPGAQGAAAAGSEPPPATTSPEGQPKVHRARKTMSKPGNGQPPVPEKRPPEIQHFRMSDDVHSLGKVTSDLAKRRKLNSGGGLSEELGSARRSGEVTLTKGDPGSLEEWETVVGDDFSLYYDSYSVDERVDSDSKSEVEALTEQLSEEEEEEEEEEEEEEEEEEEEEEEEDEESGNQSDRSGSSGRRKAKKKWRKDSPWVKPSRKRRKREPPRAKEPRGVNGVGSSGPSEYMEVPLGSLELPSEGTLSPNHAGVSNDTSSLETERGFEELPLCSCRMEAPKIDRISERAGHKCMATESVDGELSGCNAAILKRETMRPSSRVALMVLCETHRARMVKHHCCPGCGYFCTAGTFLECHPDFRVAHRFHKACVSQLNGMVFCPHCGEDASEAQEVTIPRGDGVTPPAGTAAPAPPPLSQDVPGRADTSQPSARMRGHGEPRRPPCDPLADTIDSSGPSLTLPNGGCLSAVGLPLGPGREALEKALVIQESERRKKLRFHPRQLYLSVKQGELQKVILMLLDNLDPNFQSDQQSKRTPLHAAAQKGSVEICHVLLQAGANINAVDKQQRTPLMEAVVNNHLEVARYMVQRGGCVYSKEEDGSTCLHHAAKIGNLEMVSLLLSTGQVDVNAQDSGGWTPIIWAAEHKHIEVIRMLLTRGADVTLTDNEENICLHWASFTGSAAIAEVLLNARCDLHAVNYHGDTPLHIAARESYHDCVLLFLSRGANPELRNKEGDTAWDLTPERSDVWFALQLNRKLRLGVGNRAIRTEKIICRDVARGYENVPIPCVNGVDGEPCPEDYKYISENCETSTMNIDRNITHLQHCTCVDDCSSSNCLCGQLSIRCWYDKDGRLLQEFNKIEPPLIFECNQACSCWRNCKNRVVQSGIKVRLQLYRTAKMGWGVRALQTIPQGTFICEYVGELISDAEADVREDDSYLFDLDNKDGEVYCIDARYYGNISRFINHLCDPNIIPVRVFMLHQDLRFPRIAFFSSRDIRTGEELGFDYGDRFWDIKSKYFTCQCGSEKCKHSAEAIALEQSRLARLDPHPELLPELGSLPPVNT

Row | SMILES | Potency | activity, negative = inhibition
1 | CC1(C)CN=C(N2CCN(C3=NCC(C)(C)S3)CC2)S1 | inconclusive: 89.1 µM [inhibitor, single point] | 
2 | Cc1cccc(NC(=S)NNc2cccc(Cl)c2)c1 | active: 31.6 µM | 
3 | Cc1c(C(=O)Nc2ccc(Cl)cc2)c2ccccn2c1C(=O)c1ccc(F)cc1 | inconclusive: 89.1 µM [inhibitor, single point] | 
4 | CC(NC(=O)C1CCN(S(=O)(=O)c2ccc3nc4c(c(C(=O)O)c3c2)CCCC4)CC1)c1ccccc1 (stereo not drawn) | active: 39.8 µM | 
5 | O=C(Nc1ccc(C(=O)N2CCOCC2)cc1)c1ccc([N+](=O)[O-])cc1 | inconclusive: 39.8 µM [inhibitor, single point] | 
6 | O=C(CC(=O)c1ccccc1)Nc1ccccc1C(F)(F)F |  | inactive: -4.14% [at 12.7 µM]
7 | CC(C)Cn1cc(NC(=O)NCc2ccccc2Cl)c2ccccc2c1=O | inconclusive: 25.1 µM [inhibitor, partial curve, poor fit] | 
8 | CCN(CC)S(=O)(=O)c1cccc(-c2nc3n(n2)Cc2ccccc2-3)c1 | active: 50.1 µM | 
9 | CCOC(=O)c1c(Cc2ccccc2)c[nH]c1C | active: 56.2 µM | 
10 | O=S(=O)(c1ccccc1)N(CC(O)CN1CCCCC1)c1ccccc1 (stereo not drawn) | inconclusive: 14.1 µM [inhibitor, partial curve, poor fit] | 
11 | COc1ccc(CCNC(=O)C2CCC(C(C)(C)C)CC2)cc1OC (stereo not drawn) |  | inactive: -19.7% [at 102 µM]
12 | CCOC(=O)C1=C(N)OC2=C(C(=O)CC(C)(C)C2)C1c1ccoc1 (stereo not drawn) | inconclusive: 56.2 µM [inhibitor, partial curve, poor fit] | 
13 | Cc1n[nH]c(=S)n(/N=C/c2ccccn2)c1=O | inconclusive: 5.01 µM [inhibitor, full curve, poor fit] | 
14 | Oc1ccc(-c2nc(=S)[nH][nH]2)cc1 | active: 1.26 µM | 
15 | Cc1ccc(-n2[nH]c(C)c(C=Nc3ccc(S(=O)(=O)Nc4nccs4)cc3)c2=O)cc1 | inconclusive: 1.78 µM [inhibitor, full curve] | 
16 | Cc1ccc(S(=O)(=O)NCC23C=CC(O2)C2C(=O)N(c4ccccc4)C(=O)C23)cc1 (stereo not drawn) | inconclusive: 2.24 µM [inhibitor, partial curve, poor fit] | 
17 | CC(C(=O)N(C)C1CCS(=O)(=O)C1)N1C(=O)/C(=C/c2ccco2)SC1=S (stereo not drawn) | active: 44.7 µM | 
18 | CC1(C(=O)NC(=S)N(CCC#N)Cc2cccnc2)CC1(Cl)Cl (stereo not drawn) | inconclusive: 50.1 µM [inhibitor, partial curve] | 
19 | S=c1[nH]c2ccccc2c2ccccc12 | active: 8.91 µM | 
20 | CCc1nnc(NS(=O)(=O)c2ccc(N3C(=O)c4ccccc4C3=O)cc2)s1 | inconclusive: 56.2 µM [inhibitor, partial curve, poor fit] | 
21 | COc1cccc(CNc2ccc(S(N)(=O)=O)cc2)c1OCc1ccccc1F |  | inactive: 18.8%
22 | COc1ccc(CNC(=O)c2ccc3ccccc3n2)cc1 |  | inactive: 43.8% [at 102 µM]
23 | COC(=O)c1ccc(-n2c(C)cc(C(=O)CCl)c2C)cc1 | inconclusive: 89.1 µM [inhibitor, single point] | 

Row | SMILES | Potency | activity, negative = inhibition
24 | CC(C)(C)C(=O)N(Cc1nc2ccccc2c(=O)[nH]1)Cc1cccs1 |  | inactive: -11.5%
25 | COC(=O)/C(=N/Nc1ccccc1OC)N1CCCc2ccccc21 | inconclusive: 0.158 µM [inhibitor, full curve, poor fit] | 
26 | c1cncc(CNc2cc(-c3ccoc3)ncn2)c1 |  | inactive: -24.5% [at 0.501 µM]
27 | O=C(Nc1ccc(Cl)cc1)N1CCCC(Cn2cccc2)C1 (stereo not drawn) | inconclusive: 50.1 µM [inhibitor, partial curve] | 
28 | CC1(C)CC(=O)C2=C(C1)OC(c1ccncc1)C(C#N)=C2N (stereo not drawn) | inconclusive: 8.91 µM [inhibitor, partial curve, poor fit] | 
29 | COc1ccc(-c2ccc(CCC(=O)O)n2CC(=O)Nc2cccc(C(F)(F)F)c2)cc1 |  | inactive: -50.9%
30 | CCOC(=O)c1c(CN2CCOCC2)n(-c2ccccc2)c2cc(Br)c(O)cc12 | inconclusive: 28.2 µM [inhibitor, single point] | 
31 | Nc1cc(-c2ccc(Br)cc2)nn1S(=O)(=O)c1ccccc1 | inconclusive: 89.1 µM [inhibitor, single point] | 
32 | CC1=NN(c2ccc(C)cc2C)C(=O)C1C(c1ccccc1)C1C(=O)N(c2ccc(C)cc2C)N=C1C (stereo not drawn) | inconclusive: 50.1 µM [inhibitor, partial curve, poor fit] | 
33 | CCN(CC)C(=O)c1cccc(NC(=O)c2cc(-c3ccccn3)nc3ccccc23)c1 | inconclusive: 2.24 µM [inhibitor, partial curve, poor fit] | 
34 | Cc1ccccc1-n1c(=O)cc(N2CCN(C(=O)c3ccco3)CC2)[nH]c1=O | inconclusive: 39.8 µM [inhibitor, single point] | 
35 | Cc1nnc(NC(=O)C(=O)c2cc(C)n(-c3ccc(C)c(C)c3)c2C)s1 |  | inactive: -5.78%
36 | O=C(CNC(=O)c1ccc(Br)o1)NCC1CCCCC1 |  | inactive: 4.47% [at 12.7 µM]
37 | COc1ccccc1-c1nc(CNC(=O)Nc2ccccc2)c(C)o1 |  | inactive: -0.583%
38 | CCc1cc2c(SCC(=O)Nc3ncc(Cl)c(C)c3Cl)ncnc2s1 | inconclusive: 89.1 µM [inhibitor, single point] | 
39 | N#CCC(=O)Nc1ccc(C(=O)OCC(=O)NC(=O)Cc2ccccc2)cc1 | inconclusive: 89.1 µM [inhibitor, partial curve, poor fit] | 
40 | COc1cc(-c2cc(OC)c3c(C)oc(C)c3c(=O)c2)ccc1OC(=O)c1ccccc1F | inconclusive: 10 µM [inhibitor, partial curve, poor fit] | 
41 | Cc1ccc(CNC(=O)C2CCN(S(=O)(=O)c3ccc4c(c3)CC(C)N4C(=O)C3CCC3)CC2)o1 (stereo not drawn) | inconclusive: 50.1 µM [inhibitor, partial curve, poor fit] | 
42 | CC(C)Cn1c(N)c(C(=O)COC(=O)c2cc(-c3ccccc3)nc3ccccc23)c(=O)n(C)c1=O | inconclusive: 79.4 µM [inhibitor, single point] | 
43 | COc1cc(C(=O)NCc2nnc(SCC(=O)Nc3cccc(C(F)(F)F)c3)o2)cc(OC)c1OC |  | inactive: 1.29% [at 0.501 µM]
44 | CCOC(=O)CC(NS(=O)(=O)c1ccc(OC)c(OC)c1)c1cccc([N+](=O)[O-])c1 (stereo not drawn) | inconclusive: 56.2 µM [inhibitor, partial curve] | 
45 | CCOc1ccc(Cc2nn[nH]n2)cc1 | inconclusive: 50.1 µM [inhibitor, partial curve, poor fit] | 
46 | CCOC(=O)c1c(NC(C)=O)c2c3c(sc2n1Cc1nc(-c2cccc(C)c2)oc1C)CCCC3 |  | inactive: 1.3%

Row | SMILES | Potency | activity, negative = inhibition
47 | CCc1sc(/C=C(/C#N)C(N)=S)cc1[N+](=O)[O-] | active: 12.6 µM | 
48 | CC1C(=O)N2CCCc3cc(S(=O)(=O)N4CCN(c5ccccc5F)CC4)cc1c32 (stereo not drawn) | inconclusive: 70.8 µM [inhibitor, partial curve] | 
49 | Cc1cnccc1CN(C)C(=O)CC1C(=O)NCCN1CC1CCCCC1 (stereo not drawn) | inconclusive: 35.5 µM [inhibitor, partial curve, poor fit] | 
50 | CCOc1ccc(NC(=O)NCc2cccnc2)cc1 | inconclusive: 28.2 µM [inhibitor, partial curve, poor fit] | 
51 | COc1ccc(S(=O)(=O)N2CCCC2C(=O)Nc2nnc(-c3cccnc3)s2)cc1 (stereo not drawn) | active: 3.55 µM | 
52 | CC1(C)NC(=O)N(CC(O)COc2ccc(-c3ccccc3)cc2)C1=O (stereo not drawn) | inconclusive: 70.8 µM [inhibitor, single point] | 
53 | COc1ccc(N2CCN(C(=O)c3ccc4c(Cl)c5c(nc4c3)CCCC5)CC2)cc1 | inconclusive: 70.8 µM [inhibitor, single point] | 
54 | COc1ccc(-c2cc(-c3ccc(Cl)cc3)c(C#N)c(SCC(=O)O)n2)cc1 | inconclusive: 5.01 µM [inhibitor, full curve, poor fit] | 
55 | Cc1ccnc(SCC(=O)c2cccs2)n1 | active: 35.5 µM | 
56 | CCCc1cc(C(=O)Nc2c(C)nn(Cc3ccc(Cl)c(Cl)c3)c2C)no1 |  | inactive: 2.83%
57 | Cc1ccc(-n2nc3c(c2NC(=O)c2ccco2)CS(=O)C3)c(C)c1 (stereo not drawn) | active: 14.1 µM | 
58 | COc1ccccc1/C=C\C(=O)NCC(=O)N/N=C/c1ccc(O)cc1O |  | inactive: 22.4% [at 102 µM]
59 | Clc1ccc(N2CCN(Cc3ccc(Br)o3)CC2)cc1 | active: 12.6 µM | 
60 | Cc1ccc(NC(=O)CC(NCCN2CCOCC2)C(=O)O)cc1Cl (stereo not drawn) | inconclusive: 89.1 µM [inhibitor, single point] | 
61 | CC1CN(S(=O)(=O)c2cccc(C(=O)NCC3COc4ccccc4O3)c2)CC(C)O1 (stereo not drawn) | inconclusive: 1.12 µM [inhibitor, full curve, poor fit] | 
62 | CCCCCCNC(=O)n1cc(F)c(=O)[nH]c1=O |  | inactive: -31.6% [at 2.33 µM]
63 | CCC(=O)Nc1cccc(C2=NOC3(C2)C[C@@H](C(N)=O)N(C(=O)c2ccc(OC)cc2)C3)c1 (stereo partly drawn) |  | inactive: 16.2% [at 12.7 µM]
64 | Cn1c(Cl)cnc1C(O)c1ccccc1 (stereo not drawn) | inconclusive: 50.1 µM [inhibitor, partial curve] | 
65 | Cc1ccc(NC(=S)N/N=C2\CCCCC2C)cc1 (stereo not drawn) | active: 3.55 µM | 
66 | COc1ccc(/C=C/C2=CC(C)(C)NC(=S)N2)cc1 | active: 8.91 µM | 
67 | CC(=O)c1cc(F)c(N2CCN(C(=O)Cc3ccccc3)CC2)cc1C | inconclusive: 56.2 µM [inhibitor, partial curve, poor fit] | 
68 | CCN(Cc1ccccc1)C(=O)c1ccc(CS(=O)c2ccccc2C)o1 (stereo not drawn) | inconclusive: 31.6 µM [inhibitor, partial curve, poor fit] | 
